The list shows a part of the results. Interaction screen of human proteins with wild-type SARS-CoV-2 proteins by split-DHFR complementation in yeast, 1 µg/mL methotrexate. Value = fitness of the pair (three or more lineages) minus that of the viral protein without a human partner, on a scale set by negative (0) and fused positive (1) controls, mean of up to three cultures; higher = more likely to interact. Active = false discovery rate below 0.05 (one-sided t-test) in at least one culture. Nearly all pairs are not hits, and differences among them are mostly noise (correlation between cultures about 0.3); most hits were seen in one culture only. Human sequences are the Swiss-Prot entries looked up by gene name; the clone may be another isoform. NSP2 values were corrected by the authors for a growth advantage. Listed are human proteins with a hit and a random twelfth of the others.
Columns and labels:
Experiment in all cases: yeast fitness gain over the viral ORF with no human partner (scaled fitness); higher = more likely to interact
SARS-CoV-2 M = target: SARS-CoV-2 M
Method: (§1)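 Split mouse DHFR complementation in pooled diploid yeast: human ORFeome clones carry one fragment and viral ORFs the other; barcoded lineages compete in 1 µg/mL methotrexate and fitness is read by barcode sequencing in up to three cultures.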

SARS-CoV-2 N = target: SARS-CoV-2 N
Method: as §1

SARS-CoV-2 NSP1 = target: SARS-CoV-2 NSP1
Method: as §1

SARS-CoV-2 NSP10 = target: SARS-CoV-2 NSP10
Method: as §1

SARS-CoV-2 NSP12 = target: SARS-CoV-2 NSP12
Method: as §1

SARS-CoV-2 NSP13 = target: SARS-CoV-2 NSP13
Method: as §1

SARS-CoV-2 NSP15 = target: SARS-CoV-2 NSP15
Method: as §1

SARS-CoV-2 NSP16 = target: SARS-CoV-2 NSP16
Method: as §1

SARS-CoV-2 NSP2 = target: SARS-CoV-2 NSP2
Method: as §1

SARS-CoV-2 NSP5 = target: SARS-CoV-2 NSP5
Method: as §1

SARS-CoV-2 NSP6 = target: SARS-CoV-2 NSP6
Method: as §1

SARS-CoV-2 NSP7 = target: SARS-CoV-2 NSP7
Method: as §1

SARS-CoV-2 NSP8 = target: SARS-CoV-2 NSP8
Method: as §1

SARS-CoV-2 ORF10 = target: SARS-CoV-2 ORF10
Method: as §1

SARS-CoV-2 ORF3B = target: SARS-CoV-2 ORF3B
Method: as §1

SARS-CoV-2 ORF6 = target: SARS-CoV-2 ORF6
Method: as §1

SARS-CoV-2 ORF7A = target: SARS-CoV-2 ORF7A
Method: as §1

SARS-CoV-2 ORF7B = target: SARS-CoV-2 ORF7B
Method: as §1

SARS-CoV-2 ORF8 = target: SARS-CoV-2 ORF8
Method: as §1

SARS-CoV-2 ORF9B = target: SARS-CoV-2 ORF9B
Method: as §1

[1] = target: SARS-CoV-2 ORF9Bwu (the 73-codon ORF)
Method: as §1

SARS-CoV-2 S = target: SARS-CoV-2 S
Method: as §1

SARS-CoV-2 NSP14 = target: SARS-CoV-2 NSP14
Method: as §1

SARS-CoV-2 NSP4 = target: SARS-CoV-2 NSP4
Method: as §1

SARS-CoV-2 NSP9 = target: SARS-CoV-2 NSP9
Method: as §1

SARS-CoV-2 ORF3A = target: SARS-CoV-2 ORF3A
Method: as §1

Measured: yeast fitness gain

B1: TRAPPC12, Q8WVT3 (protein)
chain: MEDAGGGEETPAPEAPHPPQLAPPEEQGLLFQEETIDLGGDEFGSEENETASEGSSPLADKLNEHMMESVLISDSPNSEGDAGDLGRVRDEAEPGGEGDPGPEPAGTPSPSGEADGDCAPEDAAPSSGGAPRQDAAREVPGSEAARPEQEPPVAEPVPVCTIFSQRAPPASGDGFEPQMVKSPSFGGASEASARTPPQVVQPSPSLSTFFGDTAASHSLASDFFDSFTTSAFISVSNPGAGSPAPASPPPLAVPGTEGRPEPVAMRGPQAAAPPASPEPFAHIQAVFAGSDDPFATALSMSEMDRRNDAWLPGEATRGVLRAVATQQRGAVFVDKENLTMPGLRFDNIQGDAVKDLMLRFLGEKAAAKRQVLNADSVEQSFVGLKQLISCRNWRAAVDLCGRLLTAHGQGYGKSGLLTSHTTDSLQLWFVRLALLVKLGLFQNAEMEFEPFGNLDQPDLYYEYYPHVYPGRRGSMVPFSMRILHAELQQYLGNPQESLDRLHKVKTVCSKILANLEQGLAEDGGMSSVTQEGRQASIRLWRSRLGRVMYSMANCLLLMKDYVLAVEAYHSVIKYYPEQEPQLLSGIGRISLQIGDIKTAEKYFQDVEKVTQKLDGLQGKIMVLMNSAFLHLGQNNFAEAHRFFTEILRMDPRNAVANNNAAVCLLYLGKLKDSLRQLEAMVQQDPRHYLHESVLFNLTTMYELESSRSMQKKQALLEAVAGKEGDSFNTQCLKLA
inactive: SARS-CoV-2 M -0.0999 | SARS-CoV-2 N 0.02 | SARS-CoV-2 NSP1 = 0.00289 | SARS-CoV-2 NSP10 = -0.0285 | SARS-CoV-2 NSP12 = 0.0737 | SARS-CoV-2 NSP13 = 0.0455 | SARS-CoV-2 NSP15 = 0.038 | SARS-CoV-2 NSP16 = -0.0747 | SARS-CoV-2 NSP2 = -0.0896 | SARS-CoV-2 NSP5 = 0.0758 | SARS-CoV-2 NSP6 = -0.00758 | SARS-CoV-2 NSP7 = 0.0269 | SARS-CoV-2 NSP8 = -0.14 | SARS-CoV-2 ORF10 = 0.049 | SARS-CoV-2 ORF3B -0.0547 | SARS-CoV-2 ORF6 = -0.00286 | SARS-CoV-2 ORF7A -0.132 | SARS-CoV-2 ORF7B 0.0291 | SARS-CoV-2 ORF8 = 0.0132 | SARS-CoV-2 ORF9B -0.109 | [1] 0.104 | SARS-CoV-2 S 0.0326

B2: UTS2, O95399 (protein)
chain: MYKLASCCLLFIGFLNPLLSLPLLDSREISFQLSAPHEDARLTPEELERASLLQILPEMLGAERGDILRKADSSTNIFNPRGNLRKFQDFSGQDPNILLSHLLARIWKPYKKRETPDCFWKYCV
inactive: SARS-CoV-2 M -0.106 | SARS-CoV-2 NSP10 = 0.0192 | SARS-CoV-2 NSP12 = 0.127 | SARS-CoV-2 NSP13 = 0.02 | SARS-CoV-2 NSP14 = -0.0208 | SARS-CoV-2 NSP15 = 0.0666 | SARS-CoV-2 NSP2 = -0.0472 | SARS-CoV-2 NSP4 = -0.0795 | SARS-CoV-2 NSP5 = 0.0473 | SARS-CoV-2 NSP6 = 0.0951 | SARS-CoV-2 NSP7 = 0.0566 | SARS-CoV-2 NSP8 = -0.091 | SARS-CoV-2 ORF10 = 0.0112 | SARS-CoV-2 ORF3B 0.00441 | SARS-CoV-2 ORF6 = -0.0382 | SARS-CoV-2 ORF7A 0.0378 | SARS-CoV-2 ORF7B -0.000801 | SARS-CoV-2 ORF8 = -0.0863 | SARS-CoV-2 ORF9B 0.00572 | [1] -0.0462 | SARS-CoV-2 S 0.0547

B3: XRCC2, O43543 (protein)
chain: MCSAFHRAESGTELLARLEGRSSLKEIEPNLFADEDSPVHGDILEFHGPEGTGKTEMLYHLTARCILPKSEGGLEVEVLFIDTDYHFDMLRLVTILEHRLSQSSEEIIKYCLGRFFLVYCSSSTHLLLTLYSLESMFCSHPSLCLLILDSLSAFYWIDRVNGGESVNLQESTLRKCSQCLEKLVNDYRLVLFATTQTIMQKASSSSEEPSHASRRLCDVDIDYRPYLCKAWQQLVKHRMFFSKQDDSQSSNQFSLVSRCLKSNSLKKHFFIIGESGVEFC
inactive: SARS-CoV-2 M -0.128 | SARS-CoV-2 NSP1 = 0.098 | SARS-CoV-2 NSP10 = -0.00151 | SARS-CoV-2 NSP12 = -0.17 | SARS-CoV-2 NSP13 = -0.0241 | SARS-CoV-2 NSP14 = 0.00472 | SARS-CoV-2 NSP15 = -0.0878 | SARS-CoV-2 NSP16 = 0.108 | SARS-CoV-2 NSP2 = -0.214 | SARS-CoV-2 NSP5 = 0.0116 | SARS-CoV-2 NSP6 = 0.0535 | SARS-CoV-2 NSP7 = -0.0729 | SARS-CoV-2 NSP8 = 0.0783 | SARS-CoV-2 ORF10 = 0.0642 | SARS-CoV-2 ORF3B 0.00722 | SARS-CoV-2 ORF6 = 0.0179 | SARS-CoV-2 ORF7A -0.112 | SARS-CoV-2 ORF7B 0.103 | SARS-CoV-2 ORF8 = -0.00505 | SARS-CoV-2 ORF9B -0.0447 | SARS-CoV-2 S -0.0328

B4: CCL26, Q9Y258 (protein)
chain: MMGLSLASAVLLASLLSLHLGTATRGSDISKTCCFQYSHKPLPWTWVRSYEFTSNSCSQRAVIFTTKRGKKVCTHPRKKWVQKYISLLKTPKQL
inactive: SARS-CoV-2 M 0.173 | SARS-CoV-2 NSP10 = 0.0714 | SARS-CoV-2 NSP12 = 0.0073 | SARS-CoV-2 NSP13 = -0.0681 | SARS-CoV-2 NSP16 = 0.0499 | SARS-CoV-2 NSP2 = 0.0346 | SARS-CoV-2 NSP5 = -0.0584 | SARS-CoV-2 NSP6 = -0.000613 | SARS-CoV-2 NSP7 = -0.0454 | SARS-CoV-2 NSP8 = -0.0214 | SARS-CoV-2 NSP9 = 0.0261 | SARS-CoV-2 ORF10 = 0.0435 | SARS-CoV-2 ORF3B -0.0935 | SARS-CoV-2 ORF6 = 0.00459 | SARS-CoV-2 ORF7A -0.0731 | SARS-CoV-2 ORF7B 0.0474 | SARS-CoV-2 ORF8 = -0.0453 | SARS-CoV-2 ORF9B 0.0192 | [1] -0.147 | SARS-CoV-2 S -0.0854

B5: CCR1, P32246 (protein)
chain: METPNTTEDYDTTTEFDYGDATPCQKVNERAFGAQLLPPLYSLVFVIGLVGNILVVLVLVQYKRLKNMTSIYLLNLAISDLLFLFTLPFWIDYKLKDDWVFGDAMCKILSGFYYTGLYSEIFFIILLTIDRYLAIVHAVFALRARTVTFGVITSIIIWALAILASMPGLYFSKTQWEFTHHTCSLHFPHESLREWKLFQALKLNLFGLVLPLLVMIICYTGIIKILLRRPNEKKSKAVRLIFVIMIIFFLFWTPYNLTILISVFQDFLFTHECEQSRHLDLAVQVTEVIAYTHCCVNPVIYAFVGERFRKYLRQLFHRRVAVHLVKWLPFLSVDRLERVSSTSPSTGEHELSAGF
inactive: SARS-CoV-2 M 0.0412 | SARS-CoV-2 NSP1 = 0.0262 | SARS-CoV-2 NSP10 = -0.0527 | SARS-CoV-2 NSP12 = 0.0494 | SARS-CoV-2 NSP13 = 0.0161 | SARS-CoV-2 NSP14 = 0.0944 | SARS-CoV-2 NSP15 = -0.0387 | SARS-CoV-2 NSP16 = 0.0541 | SARS-CoV-2 NSP2 = -0.11 | SARS-CoV-2 NSP4 = 0.149 | SARS-CoV-2 NSP5 = -0.0085 | SARS-CoV-2 NSP6 = 0.0369 | SARS-CoV-2 NSP7 = 0.111 | SARS-CoV-2 NSP8 = -0.0356 | SARS-CoV-2 NSP9 = -0.00873 | SARS-CoV-2 ORF10 = 0.00265 | SARS-CoV-2 ORF3A 0.0272 | SARS-CoV-2 ORF3B 0.0829 | SARS-CoV-2 ORF6 = 0.0475 | SARS-CoV-2 ORF7A 0.0477 | SARS-CoV-2 ORF7B 0.0652 | SARS-CoV-2 ORF8 = 0.0417 | SARS-CoV-2 ORF9B 0.0392 | [1] 0.0548 | SARS-CoV-2 S 0.0326
